Reference: publication PMC6919601, “Identification of Plasmodium dipeptidyl aminopeptidase allosteric inhibitors by high throughput screening” (PLoS ONE, 2019)
Screen size: about 110,000 compounds; about 230 (0.21%) showed an effect of 50% or more. Some of the results follow.

molecular target: DPAP1 (Plasmodium falciparum, UniProt Q8IIJ9); experiment: primary screen, percent inhibition; read by cleavage of a fluorogenic dipeptide substrate; higher = more effect of the substance; parameters: species or system P. falciparum D10 trophozoite lysates; single well
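Further: 30 min substrate incubation versus DMSO and 10 µM JCP410 controls.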

DPAP1, sequence (Q8IIJ9 whole entry, looked up): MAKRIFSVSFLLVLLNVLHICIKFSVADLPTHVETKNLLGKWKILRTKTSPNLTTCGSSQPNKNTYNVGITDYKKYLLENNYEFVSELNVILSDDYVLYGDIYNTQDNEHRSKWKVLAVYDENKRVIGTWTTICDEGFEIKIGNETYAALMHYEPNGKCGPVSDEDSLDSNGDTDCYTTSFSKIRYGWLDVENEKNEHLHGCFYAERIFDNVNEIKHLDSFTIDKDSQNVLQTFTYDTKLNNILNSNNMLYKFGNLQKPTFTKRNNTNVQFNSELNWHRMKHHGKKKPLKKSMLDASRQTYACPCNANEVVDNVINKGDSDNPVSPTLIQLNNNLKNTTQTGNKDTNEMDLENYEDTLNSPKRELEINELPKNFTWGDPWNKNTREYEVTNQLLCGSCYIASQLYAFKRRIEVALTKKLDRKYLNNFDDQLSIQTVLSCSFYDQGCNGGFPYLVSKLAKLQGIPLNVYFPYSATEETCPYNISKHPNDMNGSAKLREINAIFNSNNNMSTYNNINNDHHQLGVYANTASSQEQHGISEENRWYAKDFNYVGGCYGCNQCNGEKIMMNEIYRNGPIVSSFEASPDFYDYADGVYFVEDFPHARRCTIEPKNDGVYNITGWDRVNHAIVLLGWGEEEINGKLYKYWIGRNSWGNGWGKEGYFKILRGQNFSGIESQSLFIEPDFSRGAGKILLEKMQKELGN

| SMILES | % Inhibition @ 10 uM |
| --- | --- |
| Cn1nc(-c2ccc(Cl)cc2)c2cc(C(=O)NCCCN3CCOCC3)sc21 | -4.96% |
| CCOC(=O)c1c(NC(=O)c2cccnc2)sc(C(=O)OC)c1C | -1.42% |
| COc1ccccc1CNC(=O)C1CCC(CNS(=O)(=O)c2cccs2)CC1 (stereo not shown) | -0.0508% |
| O=C(Cn1nnc2sc3c(c2c1=O)CCCC3)NC1CCCCC1 | 2.04% |
| Cc1ccc(CN(C(=O)c2sc3ccccc3c2Cl)C2CCS(=O)(=O)C2)o1 (stereo not shown) | -4.64% |
| Cc1ccccc1OC(C)C(=O)Nc1ccccc1 (stereo not shown) | -4.02% |
| COC(=O)c1nc2n(n1)C(c1ccccc1OC)C1=C(O)CCCC1=N2 (stereo not shown) | -3.6% |
| COc1cc(OC)cc(-c2nc3n(n2)C(c2cccnc2)C(C(N)=O)=C(C)N3)c1 (stereo not shown) | 1.96% |
| CCOc1ccc2nc(SCC(=O)N3CCN(C(=O)c4ccc(C)cc4)C3)sc2c1 | 6.49% |
| OC1=C2C(=Nc3ccccc3NC2c2cccc(O)c2)CC(c2cccs2)C1 (stereo not shown) | -6.92% |
| Cc1nc(O)nc(O)c1N1CCOCC1 | -2.12% |
| CCCSc1nnc(N2C(=O)CC(c3ccc(F)cc3)C3=C2CC(C)(C)CC3=O)s1 (stereo not shown) | -1.05% |
| Cc1nn(-c2ccccc2)c(-n2cccc2)c1C(=O)NCCCc1ccccc1 | -1.58% |
| CCOC(=O)N1CCN(C(=O)CN(C)S(=O)(=O)c2ccc(C)cc2)CC1 | 0.235% |
| Cc1noc(/C=C/N(C)C)c1S(=O)(=O)N(C)CC(=O)NC1CCCCC1 | 7.3% |
| O=c1c2c(nc(SCc3ccccc3)n1-c1ccccc1)-c1ccccc1CC21CCCC1 | -3.93% |
| O=C(c1ccc(Cn2cc(Br)cn2)cc1)N1N=C(C(F)F)CC1(O)C(F)F (stereo not shown) | -1.36% |
| O=C1c2[nH]nc(-c3ccccc3O)c2C(c2cccc(Oc3ccccc3)c2)N1CCCO (stereo not shown) | -3.12% |
| Cc1ccc(NC(=O)c2ccncc2)cc1Cl | 12.7% |
| COc1ccc2ccccc2c1C1NC(S)=NC(C)=C1C(=O)Nc1ccccc1 (stereo not shown) | -3.62% |
| O=C1NC(=O)C(=Cc2ccc(-c3ccc(Cl)c(Cl)c3)o2)C(=O)N1 | 4.08% |
| COc1ccc(/C=c2/[nH]c(=O)/c(=C\c3ccc(OC)cc3OC)[nH]c2=O)c(OC)c1 | 0.937% |

| SMILES | % Inhibition @ 10 uM |
| --- | --- |
| CC(O)CNc1ncnc2c1cnn2C (stereo not shown) | 4.3% |
| Cc1cccc(-c2nc(CS(=O)CC(=O)NCCN(C)C)c(C)o2)c1 (stereo not shown) | -4.71% |
| Cc1nnc(N2CCCC(C(=O)N3CCC4(CC3)OCCO4)C2)c2nn(-c3ccccc3)c(C)c12 (stereo not shown) | 0.882% |
| O=C(CCN1C(=O)c2ccccc2C1=O)Nc1ccc(NC(=O)c2ccco2)cc1 | -0.132% |
| CC1=CCC2C(=O)N(c3cccc(C(=O)NCc4ccccc4)c3)C(=O)C2C1 (stereo not shown) | -6.39% |
| COc1ccc([C@H]2NCC[C@@]3(O)CCCC[C@H]23)cc1O | 1.34% |
| CCN(Cc1ccccc1)Cc1ccccc1O | -4.14% |
| CCOC(=O)c1cnc2ccc(C)cc2c1O | -6.22% |
| Cc1cc(N2CCOCC2)c2c(N)cc(C)c(C)c2n1 | 1.82% |
| CC(C)CC(Nc1ncnc2c1oc1ccccc12)C(=O)O (stereo not shown) | -7.35% |
| CCOc1cc(S(=O)(=O)NCc2nc3ccccc3[nH]2)ccc1Cl | -0.403% |
| Cc1ccc(/C=c2/sc3nc(=O)c(Cc4ccc(F)cc4)nn3c2=O)o1 | -0.499% |
| CC1(C)N=C(N)NC(Nc2ccccc2Br)=N1 | 3.82% |
| COc1ccccc1C1CC(=O)NC(C)=C1C(=O)OCC(C)C (stereo not shown) | -6.91% |
| Cc1ccc(CNC(=O)C2CCCN(c3nnc(-n4cccc4)s3)C2)cc1 (stereo not shown) | -7.8% |
| CCn1cc(C(=O)NCc2cccnc2)c2cc(OC)c(OC)cc2c1=O | -4.86% |
| NC(=O)CSc1nnc(-c2cccs2)n1-c1ccccc1 | 2.12% |
| Cc1cc(C)c(N2CCC(=O)N2)c(C)c1 | 7.27% |
| O=C(CN1CCOCC1)c1csc2ccccc12 | -0.63% |
| CCc1ccc(OCC(=O)Nc2cccc(NC(=O)c3ccccc3)c2)cc1 | -3.98% |
| O=C1CN=C(c2cc([N+](=O)[O-])ccc2Cl)c2cc([N+](=O)[O-])ccc2N1 | -0.424% |
| Cc1ccsc1C(C#N)NC(=O)C(Cc1c(F)cccc1F)NC(=O)c1ccc(C(C)(C)C)cc1 (stereo not shown) | -4.72% |

| SMILES | % Inhibition @ 10 uM |
| --- | --- |
| CC(=O)c1ccc(N2CCN(Cc3cccs3)CC2)cc1 | -3.8% |
| CN(C)CCN(Cc1ccccc1)Cc1ccc(F)cc1F | 3.48% |
| c1ccc(CN2CCN(Cc3nnc(-c4ccc5c(c4)OCO5)o3)CC2)cc1 | 3.5% |
| CC1=C(C(=O)NCc2ccccc2Cl)C2(CCCCC2)OC1=O | 1.55% |
| COc1ccc(Nc2nn(C)c3c(C)nc(C)c[n+]23)cc1 | 2.48% |
| COc1ccc(OC)c(CCNC(=O)c2c(C)nn(-c3ccccc3)c2-n2cccc2)c1 | -1.58% |
| CC1=CC(C)C2(CO)COC(c3ccc4c(c3)OCO4)C1C2C (stereo not shown) | 3.61% |
| COc1cc(NS(=O)(=O)c2ccc(F)cc2)c(OC)cc1Cl | -0.736% |
| COCC(=O)n1nc(-c2ccco2)nc1NCc1cccs1 | -1.47% |
| Cc1nc(N2C(=O)c3oc4ccccc4c(=O)c3C2c2ccc(OCc3ccccc3)cc2)sc1C (stereo not shown) | -0.828% |
| C=CCCC1COC(c2ccc(C#N)cc2)OC1 (stereo not shown) | 5.73% |
| O=C1c2cccc3cccc(c23)C(=O)N1Cc1ccccn1 | 0.0265% |
| Nc1ccc(Sc2ccc(N3C(=O)c4ccc(N)cc4C3=O)cc2)cc1 | -3.34% |
| NC(=O)C1CCN(c2nc3c(S(=O)(=O)c4ccccc4)nnn3c3ccc(Cl)cc23)CC1 | -6.68% |
| CC(C)NS(=O)(=O)c1ccc(OCC(=O)N2CCCCCC2)cc1 | 1.69% |
| OCCNc1ncnc2c1sc1nc(-c3ccccc3)c3c(c12)CCCC3 | 3.73% |
| CC1CC(Nc2ccccc2)c2ccccc2N1C(=O)Cc1ccccc1 (stereo not shown) | 1.08% |
| C/C=C/CSc1nc2c(c(=O)[nH]c(=O)n2C)n1C/C=C/C | 2.36% |
| O=C(CSc1c2c(nc3ccccc13)CCC2)Nc1cnc2ccccc2c1 | -3.09% |
| Cc1ccccc1Cn1c(=O)n(Cc2ccccc2)c(=O)c2c(C)c(C(=O)N(C)C)sc21 | -3.02% |
